The other results are listed elsewhere or left out. These are further read-outs of the screen, such as a control signal, another cell line or another target. No call is given for them.
Target: GTPase KRas (Homo sapiens) (UniProt P01116)
Assay: Fragment capture on engineered cysteines, share of protein labelled (AID 2202238)
Set-up: protein at 5 µM with 500 µM competing thiol for 1.5 h
Settings: KRAS G12D cysteine mutants, disulfide tethering, MALDI-TOF labeling, stronger effect = higher value, fragment at 500 µM
[1] = measured here: G60C mutant labeling
[2] = measured here: G75C mutant labeling
[3] = measured here: H94C mutant labeling
[4] = measured here: I36C mutant labeling
[5] = measured here: L120C mutant labeling
[6] = measured here: M67C mutant labeling
[7] = measured here: M72C mutant labeling
[8] = measured here: N26C mutant labeling
[9] = measured here: N86C mutant labeling
[10] = measured here: P121C mutant labeling
[11] = measured here: S122C mutant labeling
[12] = measured here: S136C mutant labeling

Chain of UniProt P01116 (P01116 whole entry, looked up, the tested form may be a part): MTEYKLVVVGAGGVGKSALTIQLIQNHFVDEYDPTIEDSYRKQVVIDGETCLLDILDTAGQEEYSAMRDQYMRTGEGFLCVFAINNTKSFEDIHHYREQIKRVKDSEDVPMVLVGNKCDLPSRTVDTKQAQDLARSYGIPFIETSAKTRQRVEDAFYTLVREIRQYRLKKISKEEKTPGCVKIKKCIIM

| Compound | percent labeling [1] [%] | percent labeling [2] [%] | percent labeling [3] [%] | percent labeling [4] [%] | percent labeling [5] [%] | percent labeling [6] [%] | percent labeling [7] [%] | percent labeling [8] [%] | percent labeling [9] [%] | percent labeling [10] [%] | percent labeling [11] [%] | percent labeling [12] [%] |
| --- | --- | --- | --- | --- | --- | --- | --- | --- | --- | --- | --- | --- |
| CC(Cn1ncc2ccccc21)C(=O)NCCS (stereo not given) | 39.6 | 14.9 | 34.8 | 32.1 | 38.1 | 42.1 | 42.8 | 34.8 | 18.1 | 34 | 32.3 | 46.2 |
| O=C(NCCS)c1cc(Br)cc2[nH]c(=O)[nH]c12 | 27.2 | 29.7 | 23.1 | 16.5 | 25.2 | 17.4 | 46.3 | 41.8 | 13.9 | 14.9 | 9.2 | 28.9 |
| CC(C)n1cc2cc(NC(=O)CCS)ccc2n1 |  | 11.7 | 15.7 | 26.3 | 12.3 | 23 | 29.7 |  | 13.3 | 26.8 | 21.3 | 37.9 |
| O=C(CCS)NC1(c2ncon2)CCOCC1 |  | 0 | 11.5 | 12.3 | 7.5 | 11.7 | 5.5 |  | 3.7 | 18.2 | 18.8 | 22.8 |
| O=C(CCS)N1CCC(O)(C(F)(F)F)CC1 |  | 16.4 | 27.6 | 33.8 | 40.1 | 31 | 31.5 |  | 36.6 | 36.9 | 37.8 | 54.6 |
| Cc1cc(CN2CCN(C(=O)CCS)CC2)on1 |  | 11.1 | 31.4 | 37.1 | 39.5 | 36.8 | 19.2 |  | 27 | 33 | 37.1 | 57.4 |
| O=C(NCCS)c1ccc(-c2noc(C(F)F)n2)cc1 | 12.1 | 10.4 | 11.5 | 9.9 | 11.5 | 9.1 | 31 | 24 | 11.9 | 10.1 | 8 | 12.7 |
| Cc1nc2ccc(NC(=O)CCS)cc2c(=O)[nH]1 |  | 13.5 | 13.3 | 23.1 | 13.7 | 23.8 | 26.7 |  | 20.9 | 16.3 | 10.8 | 32.6 |
| Cc1cc(C)c(CNC(=O)CCS)c(=O)[nH]1 |  | 16.5 | 30.8 | 41.6 | 32.4 | 32 | 28.6 |  | 29.1 | 31.4 | 40.6 | 58.6 |
| Cc1cc(=O)oc2cc(OCC(=O)NCCS)ccc12 | 21.3 | 3.5 | 12 | 13.7 | 18.9 | 12.2 | 28.9 | 35.8 | 14.5 | 16.2 | 10.7 | 22.6 |
| CN(Cc1ccc2n[nH]nc2c1)C(=O)CCS |  | 27.4 | 34.4 | 38 | 31.8 | 46.3 | 34.9 |  | 29.1 | 38.6 | 39.2 | 57.7 |
| O=C(Cc1coc2ccc3ccccc3c12)NCCS | 40.4 | 17.5 | 19.3 | 12 | 22.2 | 18.8 | 34.9 | 28.8 | 14.8 | 16.4 | 12.4 | 17.8 |
| O=C(CCS)NCC1CC2(CC2)S(=O)(=O)N1 (stereo not given) |  | 11.8 | 25.3 | 25.1 | 25.5 | 26.2 | 11 |  | 11.9 | 30.6 | 33 | 42.6 |

Reference: PubChem BioAssay AID2202238 (Ras Initiative Chemistry Research Team, Frederick National …, 2025)
